Laboratory results reported in the supplement of paper PMC9135407.
“And” between values parts separate entries of the source, which are not always exact repeats. Identical values can stand only once. Counter-ions that a name gives are not always drawn. In all, about 5,800 compounds went through this assay and about 620 (11%) showed activity.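 The calls were made as follows: active = score above a cut-off or among the top three wells of a plate; in these data no inactive exceeds 0.85.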 The list shows a part of the results, in another mix than the full data.

Tested on: primary human hepatic stellate cells (donor 1)
Test: scaled lipid accumulation score (0 = DMSO-like, 1 = nortriptyline-like); higher = stronger HSC inactivation (lipid re-accumulation), active = hit call of the paper
Details: 48 h
[1] = library stock concentration: 10 mM
[2] = library stock concentration: 3.33 mM
[3] = library stock concentration: 1 mM
[4] = library stock concentration: 13.1 mM

Structure (SMILES): CN(CCc1ccc(Cl)c(Cl)c1)CC(O)COc1ccc(NS(C)(=O)=O)cc1 (stereo unspecified)
- scaled lipid accumulation score [1]: inactive: 0.524

Structure (SMILES): Nc1[nH]nc2nc3ccccc3nc12
- scaled lipid accumulation score [1]: inactive: ≤ -0.006

Structure (SMILES): COc1cc2c(CCNC(C)=O)c[nH]c2cc1O [6-Hydroxymelatonin]
- scaled lipid accumulation score [1]: inactive: 0.044

Structure (SMILES): O=C1CC[C@@H](C(=O)O)N1
- scaled lipid accumulation score [1]: inactive: ≤ 0

Structure (SMILES): CC(C)NC[C@H](O)COc1ccc(CCOCC2CC2)cc1 [Levobetaxolol HCl]
- scaled lipid accumulation score [2]: inactive: ≤ 0
- scaled lipid accumulation score [1]: inactive: 0.148

Structure (SMILES): COC(=O)C1=C(C)NC(C)=C(C(=O)OC)C1c1ccccc1[N+](=O)[O-]
- scaled lipid accumulation score [1]: inactive: ≤ 0

Structure (SMILES): COC(=O)C1=C(C)NC(C)=C(C(=O)OC)C1c1ccccc1[N+](=O)[O-] [Nifedipine]
- scaled lipid accumulation score: inactive: 0.13
- scaled lipid accumulation score [2]: inactive: ≤ 0
- scaled lipid accumulation score (library stock concentration: 5.8 mM): inactive: ≤ -0.006 and inactive: ≤ -0.001
- scaled lipid accumulation score [1]: inactive: ≤ 0 and inactive: ≤ -0.055 and inactive: 0.034

Structure (SMILES): N#Cc1ccc(NCCNCC(=O)N2CCC[C@H]2C#N)nc1 [NVP DPP 728 dihydrochloride]
- scaled lipid accumulation score [1]: inactive: ≤ 0

Structure (SMILES): COc1cc(N2CCN(C)CC2)ccc1Nc1nccc(-c2cn(C)c3cnccc23)n1
- scaled lipid accumulation score [2]: inactive: ≤ -0.009
- scaled lipid accumulation score [1]: inactive: 0.446

Structure (SMILES): CNC(=O)[C@H]1O[C@@H](n2cnc3c(NCc4ccc(N)cc4)ncnc32)[C@H](O)[C@@H]1O
- scaled lipid accumulation score [1]: inactive: 0.11

Structure (SMILES): CN(C)c1nc(N)c(C(=O)Nc2cccnc2)nc1Cl [ACDPP hydrochloride]
- scaled lipid accumulation score [1]: inactive: ≤ -0.001

Structure (SMILES): COc1cc2c(cc1O)CC[C@@H]1[C@@H]2CC[C@]2(C)[C@@H](O)CC[C@@H]12 [2-Methoxyestradiol (2-MeOE2)]
- scaled lipid accumulation score [2]: inactive: ≤ 0
- scaled lipid accumulation score [1]: inactive: ≤ 0

Structure (SMILES): COc1cc2c(cc1O)CC[C@@H]1[C@@H]2CC[C@]2(C)[C@@H](O)CC[C@@H]12 [2-Methoxyestradiol]
- scaled lipid accumulation score [1]: inactive: ≤ -0.006

Structure (SMILES): COc1cc2c(cc1O)CC[C@@H]1[C@@H]2CC[C@]2(C)[C@@H](O)CC[C@@H]12 [2-methoxyestradiol]
- scaled lipid accumulation score [1]: inactive: 0.157

Structure (SMILES): CCN(CC)CCOC(=O)C1(c2ccc([N+](=O)[O-])cc2)CCCC1 [Nitrocaramiphen hydrochloride]
- scaled lipid accumulation score: inactive: 0.328
- scaled lipid accumulation score [1]: inactive: 0.44

Structure (SMILES): CCc1cccc(N(C)C(=N)Nc2cccc3ccccc23)c1.Cl
- scaled lipid accumulation score [1]: active: 0.912

Structure (SMILES): COc1cc(Br)c(S(=O)(=O)Nc2ccc(Cl)c(O[C@@H]3CCN(C)C3)c2)cc1OC
- scaled lipid accumulation score [1]: inactive: 0.116

Structure (SMILES): CCC(=O)O[C@H](CC(=O)O)C[N+](C)(C)C
- scaled lipid accumulation score [1]: inactive: ≤ 0

Structure (SMILES): Clc1ccccc1CN1CCc2sccc2C1 [Ticlopidine hydrochloride]
- scaled lipid accumulation score: inactive: ≤ 0
- scaled lipid accumulation score (library stock concentration: 6.7 mM): inactive: ≤ 0

Structure (SMILES): Clc1ccccc1CN1CCc2sccc2C1 [Ticlopidine HCl]
- scaled lipid accumulation score (library stock concentration: 7.6 mM): inactive: 0.018

Structure (SMILES): Clc1ccccc1CN1CCc2sccc2C1
- scaled lipid accumulation score [1]: inactive: ≤ 0

Structure (SMILES): COc1cc2ncnc(Nc3ccc(F)c(Cl)c3)c2cc1NC(=O)C=CCN1CCCCC1
- scaled lipid accumulation score [2]: active: 1.08

Structure (SMILES): Nc1ccc(O)c(C(=O)O)c1 [5-Amino-2-hydroxy-benzoic acid]
- scaled lipid accumulation score [1]: inactive: ≤ 0

Structure (SMILES): Nc1ccc(O)c(C(=O)O)c1 [5-Aminosalicylic Acid]
- scaled lipid accumulation score [3]: inactive: ≤ 0

Structure (SMILES): Nc1ccc(O)c(C(=O)O)c1 [Mesalamine]
- scaled lipid accumulation score: inactive: ≤ 0
- scaled lipid accumulation score [2]: inactive: ≤ 0
- scaled lipid accumulation score [1]: inactive: ≤ 0
- scaled lipid accumulation score [4]: inactive: ≤ 0

Structure (SMILES): Nc1ccc(O)c(C(=O)O)c1 [5-aminosalicylic acid]
- scaled lipid accumulation score [4]: inactive: ≤ 0

Structure (SMILES): Cc1cc(NC(=O)C2=C(O)c3ccccc3S(=O)(=O)N2C)no1 [Isoxicam]
- scaled lipid accumulation score: inactive: 0.092
- scaled lipid accumulation score (library stock concentration: 6 mM): inactive: ≤ 0
- scaled lipid accumulation score [1]: inactive: ≤ -0.027

Structure (SMILES): Cc1cc(C(C)(C)CC(C)(C)C)ccc1OCCOCC[N+](C)(C)Cc1ccccc1 [Methyl benzethonium chloride]
- scaled lipid accumulation score: inactive: 0.451

Structure (SMILES): Cc1cc(C(C)(C)CC(C)(C)C)ccc1OCCOCC[N+](C)(C)Cc1ccccc1 [Methylbenzethonium chloride]
- scaled lipid accumulation score [1]: inactive: 0.276

Structure (SMILES): O=C1NC(=O)/C(=C\c2ccc3nccnc3c2)S1
- scaled lipid accumulation score [3]: inactive: ≤ 0
- scaled lipid accumulation score [1]: inactive: ≤ -0.055

Structure (SMILES): CO[C@@]1(NC(=O)C2SC(=C(C(N)=O)C(=O)O)S2)C(=O)N2C(C(=O)O)=C(CSc3nnnn3C)CS[C@@H]21 (stereo partly specified) [Cefotetan]
- scaled lipid accumulation score: inactive: ≤ 0

Structure (SMILES): CN(C)S(=O)(=O)c1ccc2c(c1)/C(=C/c1cc3c([nH]1)CCCC3)C(=O)N2
- scaled lipid accumulation score [1]: active: 0.958

Structure (SMILES): CC(=O)Oc1cc(C(F)(F)F)ccc1C(=O)O [Triflusal]
- scaled lipid accumulation score: inactive: ≤ 0
- scaled lipid accumulation score [2]: inactive: ≤ 0
- scaled lipid accumulation score [1]: inactive: ≤ -0.001

Structure (SMILES): CCCCCCCC/C=C\CCCCCCCC(=O)NCc1ccc(O)c(OC)c1 [Olvanil]
- scaled lipid accumulation score [3]: inactive: ≤ 0
- scaled lipid accumulation score [1]: inactive: 0.073 and inactive: 0.023
